Results published in publication PMC4336329 (PLoS ONE, 2015).
In all, about 310,000 compounds went through this assay and about 14,000 (4.5%) showed an effect of 50% or more. Effects have a minus sign here. Some of the results follow.

target: human ether-à-go-go-related gene (hERG) potassium channel (human, UniProt Q12809); experiment: primary screen, population patch clamp on CHO cells stably expressing hERG
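Note: peak tail current of the secondary pulse compared with the same well before compound.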

human ether-à-go-go-related gene (hERG) potassium channel, sequence (Q12809 whole entry, looked up): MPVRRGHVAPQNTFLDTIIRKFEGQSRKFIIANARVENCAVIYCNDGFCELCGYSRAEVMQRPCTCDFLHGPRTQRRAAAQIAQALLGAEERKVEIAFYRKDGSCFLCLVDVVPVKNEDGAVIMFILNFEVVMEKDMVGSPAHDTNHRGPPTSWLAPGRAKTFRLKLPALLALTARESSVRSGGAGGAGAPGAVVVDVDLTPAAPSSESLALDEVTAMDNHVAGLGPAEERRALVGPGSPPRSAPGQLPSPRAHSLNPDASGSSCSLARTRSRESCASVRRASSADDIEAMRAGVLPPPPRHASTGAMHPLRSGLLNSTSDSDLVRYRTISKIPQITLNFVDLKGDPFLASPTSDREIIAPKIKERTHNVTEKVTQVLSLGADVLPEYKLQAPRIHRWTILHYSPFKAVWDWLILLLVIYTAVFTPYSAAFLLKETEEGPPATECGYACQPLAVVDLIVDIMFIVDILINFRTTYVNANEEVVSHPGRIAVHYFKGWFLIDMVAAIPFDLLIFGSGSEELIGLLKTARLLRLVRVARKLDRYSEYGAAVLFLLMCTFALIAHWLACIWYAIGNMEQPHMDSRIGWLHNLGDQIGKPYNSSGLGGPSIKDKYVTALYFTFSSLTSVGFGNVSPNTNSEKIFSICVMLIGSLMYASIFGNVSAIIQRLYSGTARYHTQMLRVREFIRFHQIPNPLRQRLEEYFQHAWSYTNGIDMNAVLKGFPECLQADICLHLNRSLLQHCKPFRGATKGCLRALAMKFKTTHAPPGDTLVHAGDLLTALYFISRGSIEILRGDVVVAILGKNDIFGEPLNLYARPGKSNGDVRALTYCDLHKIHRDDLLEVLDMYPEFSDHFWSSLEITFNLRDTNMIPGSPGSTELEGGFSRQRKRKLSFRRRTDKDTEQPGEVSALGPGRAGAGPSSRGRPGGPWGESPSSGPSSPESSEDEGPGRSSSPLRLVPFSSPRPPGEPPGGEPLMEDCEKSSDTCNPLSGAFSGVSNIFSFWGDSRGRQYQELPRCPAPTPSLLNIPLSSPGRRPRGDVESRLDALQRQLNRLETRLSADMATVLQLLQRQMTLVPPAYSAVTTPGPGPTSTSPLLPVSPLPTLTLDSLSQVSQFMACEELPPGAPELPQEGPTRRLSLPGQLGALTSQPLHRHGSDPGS

| SMILES | hERG current change (%, negative = inhibition) at 10uM [%] |
| --- | --- |
| O=C(Cc1ccccc1)Nc1ccccc1C(=O)NCC1CCCO1 (centres unmarked) | 5.27 |
| Cl.O=C(O)CNCC1COc2ccccc2O1 (centres unmarked) | -6.35 |
| CCOC(=O)C1CCCN(c2ncnc3c2oc2ccccc23)C1.Cl (centres unmarked) | -43 |
| Cc1ccc(NC(=O)c2ccco2)c(NC(=O)C2CCCO2)c1 (centres unmarked) | 9.38 |
| O=c1c(Cc2ccccc2)c(O)ccn1Cc1ccc2c(c1)OCO2 | 18.9 |
| COc1ccc2[nH]c(=O)c(CN(Cc3cccs3)S(=O)(=O)c3c(C)ccc4nsnc34)cc2c1 | -11.3 |
| CCNC(=O)NC(=O)C(C)OC(=O)c1cccnc1SC (centres unmarked) | -22.1 |
| COc1ccc(C(=O)Nc2ccccc2C(=O)O)cc1Cl | 5.33 |
| CN1/C(=C/C=C(C#N)C#N)C(C)(C)c2ccccc21 | 14.7 |
| O=C(CCCOc1ccccc1)Nc1cccc(S(=O)(=O)N2CCCCC2)c1 | -21.5 |
| CCN(CCCNC(=O)C1CCN(S(=O)(=O)N2CCOCC2)CC1)c1cccc(C)c1 | -8.96 |
| Nc1nnc(SCC(=O)c2ccccc2)s1 | 11.4 |
| CC[C@@]12C(=O)N(c3cccc(C)c3)C(=O)N1[C@H](c1ccc(Br)cc1)[C@@H]1C(=O)N(C(C)(C)C)C(=O)[C@@H]12 | -2.53 |
| O=C(N1CCCCC1)N1CCCN(C(=O)N2CCCCC2)CC1 | 11.5 |
| CCN(C(=O)c1ccccc1Cl)c1ccccc1 | 13.9 |
| CCc1nc2sc3c(c2c(=O)n1NC(=O)CCl)CCCC3 | -5.54 |
| CN(Cc1nc(-c2ccncc2)no1)S(=O)(=O)c1ccc(Br)cc1 | -58.1 |
| Cc1cccc(-n2c(SC(C)C(=O)O)nc3sc4c(c3c2=O)CCCC4)c1 (centres unmarked) | 26.2 |
| Cc1ccc(-n2nnnc2C(=Cc2ccc(N(C)C)cc2)c2nnnn2-c2ccc(C)cc2)cc1 | 6.65 |
| CSc1ccc(S(=O)(=O)NC2CC2)cc1 | 9 |
| O=C(O)C(=O)O.O=C(c1cccc(F)c1)N1CCN(CC2CC3C=CC2C3)CC1 (centres unmarked) | -2.22 |
| COc1cc(OC)c(C(=O)Oc2ccc3c(c2)OCO3)cc1OC | 6.46 |
| CCCOc1ccc(C(O)CCNC(CC(=O)O)c2ccccc2)cc1 (centres unmarked) | 23.4 |

| SMILES | hERG current change (%, negative = inhibition) at 10uM [%] |
| --- | --- |
| CCOC(=O)C1(C(F)(F)F)N=C(C(F)(F)F)Nc2ccccc21 (centres unmarked) | -2.27 |
| O=c1[nH]cnc2c1ncn2Cc1ccc([N+](=O)[O-])cc1 | 33.3 |
| COn1c(SCc2ccc(Cl)cc2)nc2ccccc2c1=O | -7.27 |
| CCOC(=O)c1sc2nc3c(SCCC#N)cc(C(=O)c4cc(F)ccc4O)cn3c(=O)c2c1C | -10.1 |
| O=c1cccc2n1CC1CC2CN(c2nc(N3CCCCC3)nc(N3CCCCC3)n2)C1 (centres unmarked) | -13 |
| Cc1ccc(/C=C/C(=O)NCCCN2CCN(CCCNC(=O)/C=C/c3ccc(C)o3)CC2)o1 | -78.3 |
| Cc1c(-n2c(SCC(=O)NC(C)C(C)C)nc3ccccc3c2=O)c(=O)n(-c2ccccc2)n1C (centres unmarked) | 15 |
| COc1ccccc1N1CCN(C2CCCN(S(=O)(=O)c3ccccc3)C2)CC1 (centres unmarked) | -29.5 |
| CC(OC(=O)Cc1coc2ccc3ccccc3c12)C(=O)Nc1ncc(Cl)cc1Cl (centres unmarked) | -7.41 |
| CCOC(=O)N1CCN(C(=O)CN(C)S(=O)(=O)c2ccc(OCC)cc2)CC1 | -6.98 |
| Cc1ccc(C)c(NC(=O)C2CC3c4ccccc4C2c2ccccc23)c1 (centres unmarked) | 12.2 |
| COC(=O)c1c(N2C(=O)Nc3ccccc3N2O)sc(C)c1C | 23.2 |
| COC(=O)COc1ccc(C2NC(=O)NC(c3ccccc3)=C2C(C)=O)cc1OC (centres unmarked) | 12 |
| CN(C)C1(CNC(=O)C2CCN(S(=O)(=O)c3cc(Cl)ccc3Cl)CC2)CCCCC1 | -64.1 |
| COc1ccc(/C=N/NC(=O)Cc2ccc(Cl)cc2)cc1OC | 0.921 |
| COc1ccc(N2CCC(CNC(=S)Nc3cc(C)ccc3C)C2)cc1 (centres unmarked) | -4.75 |
| COc1ccc(C)cc1NC(=O)CCN1CCCC1 | 2.36 |
| COC(=O)/C=C1/N/C(=N\c2nc(C)cc(C)n2)N(c2ccc(C)c(C)c2)C1=O | -3.78 |
| Cc1cccn2c(=O)c3cc(C(=O)NCCN4CCOCC4)c(=N)n(CCCN4CCOCC4)c3nc12 | 15.2 |
| CCN(CC)C(=O)CSc1nc2ccccc2c(=O)n1-c1ccccc1OC | -19.4 |
| CCN(/N=C/c1ccc(Cl)cc1)c1cc(=O)n(C)c(=O)[nH]1 | 0.296 |
| COc1ccccc1NS(=O)(=O)c1ccc(C)c(NC(=O)c2c(C)noc2C)c1 | -8.94 |
| CCN(CCNC(=O)c1cc(C)nn1-c1ccccc1)c1ccccc1 | -4.11 |

| SMILES | hERG current change (%, negative = inhibition) at 10uM [%] |
| --- | --- |
| Cc1cccc(C)c1N1CCN(c2cc(Cl)nc(N)n2)CC1 | 6.96 |
| O=C(C1CCCN(Cc2nc(-c3ccc(Cl)cc3)no2)C1)N1CCOCC1 (centres unmarked) | 1.39 |
| CC(=O)c1nc2ccccc2n1S(=O)(=O)c1ccc(C)cc1 | 17.3 |
| Cc1ccc(NC(=O)Nn2cnnc2)cc1 | 23.2 |
| CC(C)(C)n1ncc2c(=O)n(Cc3c(F)cccc3Cl)cnc21 | -4.72 |
| CCc1ccccc1N1C(=O)CC(=O)NC1=O | 28.5 |
| COC(=O)Nc1sc2c(c1C(=O)NC1CC1)CCCCCC2 | -18.8 |
| CCCOc1ccc(C(=O)N2CCCC2)cc1OC | -3.36 |
| CCOC(=O)c1cc(-c2ccc(C)cc2)n(CCC(=O)NC(C)CC)c1C (centres unmarked) | 16.7 |
| C=C(C)CNC(=S)N/N=C(\C)c1ccc(OC)cc1 | -0.81 |
| Cc1cc(Nc2cccc([N+](=O)[O-])c2)c2cccc(C)c2n1.Cl | -77.3 |
| COc1cccc(CNC(=O)CNC(=O)N2CC(=O)Nc3ccccc32)c1 | 16.6 |
| COc1ccc(N/C=C(\C2OC(=O)c3ccccc32)[N+](=O)[O-])cc1 (centres unmarked) | 8.53 |
| CCc1nnc(NC(=O)CCC(=O)N2CCN(CCOc3ccc(C)cc3)CC2)s1 | -20.2 |
| CC(=O)c1c(C)[nH]c(C(=O)NC2=NCCS2)c1C | 6.34 |
| Cc1ccc2cc3cc(C(=O)NC4CC4)oc3nc2c1 | 8.43 |
| O=C(O)c1cnc(N2CCOCC2)nc1 | 4.21 |
| Cc1nc(-c2cccnc2)sc1C(=O)Nc1ccc(F)cc1F | -15 |
| COc1ccc(NC(=O)c2ccc3nc[nH]c3c2)cc1 | 21.9 |
| Cc1nn(CCCC(=O)NCCc2ccccc2)c(=O)c2nccn12 | 0.983 |
| Cc1c(CN2CCCCC2)c(O)n(CCCO)c(=O)c1C#N | 2.57 |
| O=C(/C=C/c1ccco1)NC(=S)Nc1ccc(N2CCCC2)cc1 | 3.51 |
| CCN(c1ccccc1)S(=O)(=O)c1ccc(Cl)c(NC(=O)c2ccc(=O)[nH]n2)c1 | -4.68 |

| SMILES | hERG current change (%, negative = inhibition) at 10uM [%] |
| --- | --- |
| CC(C)N(Cc1nc(-c2ccc(Cl)cc2)no1)C(=O)c1cccs1 | -8.63 |
| Cc1ccc(/C=N/NC(=O)c2cccs2)cc1[N+](=O)[O-] | -8.39 |
| CCOC(=O)CNc1nnc(SCC(=O)OCC)[nH]c1=O | 17.8 |
| O=C(COc1ccc(Cl)cc1)NCCc1cnc[nH]1 | -4.36 |
| COc1ccc(N(C(=O)c2cnccn2)C(C(=O)NC2CCCCC2)c2ccc(Cl)cc2)cc1 (centres unmarked) | 4.31 |
| Cc1cccc2cc(C(c3nnnn3Cc3ccccc3)N3CCN(C)CC3)c(=O)[nH]c12 (centres unmarked) | -8.42 |
| O=C(O)C(Cc1cnc[nH]1)NS(=O)(=O)c1ccc(Cl)cc1 (centres unmarked) | -0.798 |
| O=C(NCc1ccccc1F)c1ccc2ccccc2n1 | -3.21 |
| COc1ccc(-c2ccnc(SCC(=O)c3ccc(OC)c(OC)c3)n2)cc1 | -2.4 |
| COC(=O)C1CCN(S(=O)(=O)c2c(C)n(C)c(=O)n(C)c2=O)CC1 | 2.14 |
| COc1ccc(N2CCN(S(=O)(=O)CCNS(=O)(=O)c3ccccc3)CC2)cc1 | 9.4 |
| CN(C(=O)c1cc2c(s1)-c1ccccc1S(=O)(=O)C2)c1ccccc1F | -3.69 |
| COc1ccc(-n2ncc3c2CC(C)(C)CC3NC(=O)CCN2CCCCC2=O)cc1 (centres unmarked) | -13.9 |
| COc1ccc(N2C(=O)CC(N3CCCCC3)C2=O)cc1 (centres unmarked) | 18.6 |
| CCc1cccc(N=c2c([N+](=O)[O-])nn(-c3ccc4c(c3)OCCO4)n2O)c1 | 1.64 |
| O=c1cc(C(F)(F)F)nc(-c2ccccc2)[nH]1 | 12 |
| N#CCC(=O)Nc1ccc(C(=O)OCC(=O)c2ccc3c(c2)OCO3)cc1 | 9.45 |
| O=C(NCCc1ccccc1)C1CCN(S(=O)(=O)N2CCCCCC2)CC1 | -11.9 |
| Cn1cc(CN(CCCN2CCOCC2)C(=S)Nc2cccc(Cl)c2)c2ccccc21 | -21.3 |
| CCOC(=O)n1c(=O)n(Cc2ccc(Cl)cc2Cl)c2ccccc21 | -3.22 |
